Experimental findings from patent publication US20100017897A1 (CHILDREN S HOSPITAL OF PHILADELPHIA, published 2010) are described below.

The experiment has as its target T1, cytosolic domain of human PRRG4 (human, UniProt Q9BZD6 139-226).
T1 construct: Expressed in insect cells; also called cytosolic hPPRG4; cystosolic domain of hPPRG4; not shown: purified by HA and histidine columns, so HA and His tags are implied
T1 sequence: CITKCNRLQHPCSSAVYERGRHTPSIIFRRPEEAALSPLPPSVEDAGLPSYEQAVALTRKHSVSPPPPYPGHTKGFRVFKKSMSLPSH
The experiment is described as follows: SH3 domain array probed with purified cytosolic hPRRG4; listed as a hit. How it is done: The cystosolic domain of hPPRG4 was expressed in insect cells and proteins were purified by HA and histidine columns. Interactions of cytosolic hPPRG4 with different SH3 and WW domains were tested by incubating purified hPRRG4 proteins with arrays containing SH3 and WW domains of several proteins. After incubation, PRRG4 bound to several proteins, most of which are non-receptor tyrosine kinases or scaffolding proteins. These newly identified binding partners provide valuable therapeutic targets for the isolation and characterization of therapeutic agents that impact PRRG4 mediated oncogenesis.

B1: Hemopoietic cell kinase: SRC Kinase (other, UniProt P08631 78-138, looked up)
chain: SEDIIVVALYDYEAIHHEDLSFQKGDQMVVLEESGEWWKARSLATRKEGYIPSNYVARVDS
notes: domain: SH3 domain; Array spot; also called HCK
Take B1: the binding result was “binds”.
